Results: the supplement of paper PMC4996465
Viability of KB3-1 and Nalm-6 cells after 48 h of drug alone (CellTiter-Glo), 11 doses over about 4.5 log units. % of DMSO wells, lower = more cell loss; AC50 from the fitted curve, lower = more potent. No active / inactive call. Nalm-6 was screened in two runs. AC50 is listed only for well-fitted inhibitory curves. KB3-1 is a HeLa-derived carcinoma line, Nalm-6 a B-cell precursor leukaemia line.

Tests used:
Nalm-6 [1] = assay: viability (% of DMSO control); higher = more viable cells
Procedure: (§1)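 Eleven-dose screen of the NCATS MIPE 3 library on cells without co-treatment; CellTiter-Glo after 48 h, as % of DMSO wells.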

KB3-1 [2] = assay: as above
Procedure: as §1

Nalm-6 [3] = assay: log AC50 of viability decrease (48 h) (log10 M); higher = less potent
Procedure: (§2)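 Eleven-dose screen of the NCATS MIPE 3 library on cells without co-treatment; CellTiter-Glo after 48 h. AC50 from the curve fit; only inhibitory curves of the better fit classes are listed.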

KB3-1 [4] = assay: as above
Procedure: as §2

Row | SMILES | viability (Nalm-6 [1]; run: 1, 0.00078 µM) | viability (Nalm-6 [1]; run: 1, 0.00234 µM) | viability (Nalm-6 [1]; run: 1, 0.00702 µM) | viability (Nalm-6 [1]; run: 1, 0.0211 µM) | viability (Nalm-6 [1]; run: 1, 0.0632 µM) | viability (Nalm-6 [1]; run: 1, 0.19 µM) | viability (Nalm-6 [1]; run: 1, 0.569 µM) | viability (Nalm-6 [1]; run: 1, 1.71 µM) | viability (Nalm-6 [1]; run: 1, 5.12 µM) | viability (Nalm-6 [1]; run: 1, 15.4 µM) | viability (Nalm-6 [1]; run: 1, 46.1 µM) | viability (Nalm-6 [1]; run: 2, 0.00078 µM) | viability (Nalm-6 [1]; run: 2, 0.00234 µM) | viability (Nalm-6 [1]; run: 2, 0.00702 µM) | viability (Nalm-6 [1]; run: 2, 0.0211 µM) | viability (Nalm-6 [1]; run: 2, 0.0632 µM) | viability (Nalm-6 [1]; run: 2, 0.19 µM) | viability (Nalm-6 [1]; run: 2, 0.569 µM) | viability (Nalm-6 [1]; run: 2, 1.71 µM) | viability (Nalm-6 [1]; run: 2, 5.12 µM) | viability (Nalm-6 [1]; run: 2, 15.4 µM) | viability (Nalm-6 [1]; run: 2, 46.1 µM) | viability (KB3-1 [2]; 0.00078 µM) | viability (KB3-1 [2]; 0.00234 µM) | viability (KB3-1 [2]; 0.00702 µM) | viability (KB3-1 [2]; 0.0211 µM) | viability (KB3-1 [2]; 0.0632 µM) | viability (KB3-1 [2]; 0.19 µM) | viability (KB3-1 [2]; 0.569 µM) | viability (KB3-1 [2]; 1.71 µM) | viability (KB3-1 [2]; 5.12 µM) | viability (KB3-1 [2]; 15.4 µM) | viability (KB3-1 [2]; 46.1 µM) | log AC50 of viability decrease (Nalm-6 [3]; run: 1) | log AC50 of viability decrease (Nalm-6 [3]; run: 2) | log AC50 of viability decrease (KB3-1 [4])
1 | COc1cc2c(Oc3ccc(NC(=O)C4(C(=O)Nc5ccc(F)cc5)CC4)cc3F)ccnc2cc1OCCCN1CCOCC1 [Foretinib] | 126% | 124% | 126% | 131% | 130% | 124% | 118% | 75.6% | 61% | 44.6% | 0.504% | 111% | 110% | 112% | 113% | 112% | 110% | 108% | 89.9% | 80.9% | 60.8% | 1.48% | 106% | 106% | 108% | 106% | 103% | 104% | 105% | 85.9% | 69.2% | 54.2% | 0.323% | -5.28 | -4.78 | -4.78
2 | CCN(c1ccccc1)c1cc(NC)[n+](C)c(C)n1 [ICI-D7288] | 100% | 114% | 106% | 105% | 106% | 94% | 97.6% | 98.4% | 90.2% | 76.5% | 52.3% | 99.4% | 106% | 104% | 106% | 104% | 109% | 106% | 101% | 99.8% | 91.1% | 73.2% | 102% | 107% | 108% | 102% | 105% | 103% | 102% | 102% | 99.6% | 92.1% | 69.6% | -4.83 | -4.73 | -4.73
3 | COc1c(C)cnc(Cn2cnc3c(Cl)nc(N)nc32)c1C [CNF-2024] | 94.5% | 97.4% | 77.8% | 51.5% | 37.5% | 22.6% | 20.6% | 19.5% | 24.9% | 24.6% | 19.2% | 93.3% | 95.1% | 71.8% | 61.8% | 38.7% | 28% | 22.7% | 26.4% | 18.8% | 22.4% | 17.4% | 102% | 103% | 93.1% | 67.2% | 56.9% | 64.8% | 66.7% | 64.1% | 64.2% | 64.8% | 58.3% | -7.78 | -7.73 | -7.98
4 | S=C(NCc1ccc2c(c1)OCO2)N1CCN(c2ncnc3c2oc2ccccc23)CC1 [Amuvatinib] | 127% | 124% | 115% | 115% | 98.3% | 88.5% | 72.6% | 66.4% | 66.2% | 67.6% | 23.5% | 102% | 109% | 97.3% | 101% | 96% | 89.2% | 76.5% | 71.1% | 61.5% | 68.8% | 12.7% | 105% | 106% | 108% | 109% | 103% | 102% | 87.6% | 80.1% | 82.3% | 84.8% | 70% | -5.88 | -4.73 | -6.43
5 | C=CCc1cccc(/C=N/NC(=O)CN2CCN(Cc3ccccc3)CC2)c1O [PAC-1] | 120% | 113% | 110% | 114% | 118% | 109% | 110% | 70.3% | 56.6% | 31% | 4.5% | 106% | 112% | 114% | 112% | 110% | 109% | 95.8% | 65.8% | 47.3% | 32.6% | 2.08% | 105% | 105% | 108% | 105% | 105% | 106% | 109% | 99.6% | 89.2% | 74.3% | 57.2% | -5.23 | -5.33 | -4.88
6 | CC(=O)Nc1sc2c(c1-c1nc3ccccc3s1)CNC2 | 105% | 100% | 111% | 113% | 103% | 111% | 117% | 102% | 97.1% | 58.5% | 4.59% | 108% | 104% | 105% | 101% | 99.7% | 104% | 109% | 105% | 98.5% | 64.1% | 4.64% | 101% | 100% | 104% | 105% | 104% | 109% | 105% | 106% | 105% | 83.7% | 6.01% | -4.78 | -4.78 | -4.63
7 | Cc1nc(N)sc1-c1ccnc(Nc2ccc(N3CCOCC3)cc2)n1 [CYC-116] | 94% | 104% | 99.1% | 104% | 103% | 58.4% | 54.2% | 56.4% | 40.4% | 28.8% | 4.62% | 109% | 108% | 103% | 106% | 100% | 76.4% | 68.6% | 72.4% | 45.5% | 23.3% | 4.87% | 97.8% | 91.9% | 97.7% | 102% | 96.6% | 86.9% | 86.1% | 82.7% | 73% | 66.5% | 26.1% | -5.78 | -5.23 | -4.73
8 | COc1ccc(S(=O)(=O)N(CCO)c2ccccc2CN(C)C(=O)/C=C/c2ccc(Cl)cc2)cc1 [KN-93] | 96.3% | 102% | 99.3% | 113% | 111% | 104% | 98.3% | 81.3% | 60% | 60.1% | 0.955% | 104% | 104% | 97.7% | 99.7% | 107% | 107% | 95.4% | 83.6% | 62% | 58.9% | 1.13% | 91.1% | 87.9% | 94.5% | 90.2% | 93.7% | 94.2% | 94.3% | 88.4% | 77.7% | 77.1% | 37.7% | -4.73 | -4.78 | -4.68
9 | O=C(Nc1cc(Cl)cc2c1[nH]c1cnccc12)c1cccnc1 [PS-1145] | 102% | 100% | 107% | 115% | 111% | 98.1% | 104% | 70.3% | 44.9% | 6.23% | 8.03% | 112% | 108% | 106% | 107% | 103% | 106% | 108% | 104% | 105% | 108% | 78.7% | 95.2% | 99% | 96% | 106% | 99.2% | 96.6% | 99.3% | 104% | 100% | 39.4% | 11.6% | -5.48 | – | -4.88
10 | CN(C)CCN(C)C(=O)c1ccc(NC(=O)Nc2ccc(-c3nc(N4CCOCC4)c4ccn(CC(F)(F)F)c4n3)cc2)cc1 | 120% | 110% | 105% | 95.1% | 77.6% | 63.6% | 61.4% | 46.3% | 40.2% | 15.3% | -0.551% | 110% | 110% | 106% | 102% | 90.1% | 68.7% | 64.8% | 52.3% | 21.7% | 6.32% | 0.402% | 101% | 102% | 90.7% | 76.6% | 49.5% | 42.5% | 41.3% | 41.1% | 41.1% | 42.4% | 0.677% | -5.83 | -5.83 | -7.58
11 | COc1cc(Nc2ncc(F)c(Nc3ccc4c(n3)NC(=O)C(C)(C)O4)n2)cc(OC)c1OC [R406] | 117% | 130% | 122% | 132% | 113% | 121% | 113% | 94.5% | 82.5% | 72.7% | 15.3% | 102% | 114% | 112% | 109% | 110% | 108% | 103% | 94.6% | 81.9% | 68.9% | 2.44% | 103% | 107% | 109% | 103% | 101% | 106% | 99.1% | 90.7% | 80.1% | 80.4% | 51.7% | -4.78 | -4.73 | -4.78
12 | CC(C)[C@@H](N(CCCN)C(=O)C1=CC=C(C)C=C1)C/2=N/C3=CC(=CC=C3C(=O)N2CC4=CC=CC=C4)Cl [Ispinesib] | 103% | 70.7% | 12.3% | 11.2% | 11.3% | 9.21% | 10.4% | 11.4% | 6.9% | 4.5% | 2.37% | 104% | 94.9% | 9.9% | 8.74% | 9.8% | 7.34% | 6.08% | 7.23% | 5.13% | -0.0347% | 1.43% | 103% | 101% | 38.5% | 27.4% | 22.8% | 32.5% | 24.3% | 24.4% | 16.5% | 15.2% | -0.24% | -8.53 | -8.43 | -8.28
13 | C=CC(=O)Nc1cccc(Oc2nc(Nc3ccc(N4CCN(C)CC4)cc3OC)ncc2Cl)c1 [WZ-4002] | 98.5% | 103% | 105% | 106% | 106% | 88.5% | 103% | 88% | 78.6% | 50% | -0.463% | 105% | 110% | 108% | 104% | 104% | 109% | 101% | 87.4% | 75.9% | 56.6% | 2.18% | 100% | 109% | 101% | 105% | 106% | 100% | 99.5% | 100% | 97.8% | 85.5% | 19.2% | -4.78 | -4.78 | -4.63
14 | CCN1CCN(CC1)CC(=O)NC2=CC=C(C3=C2C4=C(S3)C=CC=C4)C5=C6O\C(=C/C(=O)C6=CC=C5)N7CCOCC7 | 93.1% | 88.2% | 100% | 86.9% | 80.7% | 77% | 46.6% | 27.2% | 6.94% | 1.61% | -0.424% | 112% | 96.9% | 102% | 106% | 98.9% | 81.6% | 61.1% | 37.4% | 2.07% | 1.02% | -0.162% | 106% | 108% | 94.9% | 98.3% | 90.8% | 78.3% | 65.6% | 56.2% | 45% | 43.4% | 14.8% | -6.18 | -6.03 | -5.78
